In experiment [1] the test system is RAW-Dual. In words: IRF Lucia reporter activity, fold change vs agonist alone; cytotoxicity flag (confluency mask): cytotoxic (confluency <70% of control); higher = enhanced IRF activity. In short, it runs like this:
(§1)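 Library stock was pin-tooled at 50 nL into 384-well plates of RAW-Dual macrophages (50,000 cells/well, DMEM), followed 1 h later by a PRR agonist, and the cells were kept at 37 °C, 5% CO2. Supernatant collected after 20 hours was read for IRF by QuantiLuc luminescence and for NF-κB by QuantiBlue absorbance at 620 nm. Reporter activity is fold change over agonist-alone wells, and a well counted as cytotoxic when its IncuCyte confluency was below 70% of agonist controls in both mask sets.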

The subject of experiment [2] is RAW-Dual. In words: IRF Lucia reporter activity, fold change vs agonist alone; higher = enhanced IRF activity. The note with it: agonist: MPLA (TLR4) […]. In short, it runs like this:
as §1

Experiment [3] has as its system RAW-Dual. Briefly: IRF Lucia reporter activity, fold change vs agonist alone; cytotoxicity flag (confluency mask): not cytotoxic; higher = enhanced IRF activity. The essentials: as §1
Setting [4] is: agonist: 3'3'-cGAMP (STING) 10 ug/mL.
Where [5] appears, read: library stock concentration (final ~1000-fold dilution): 10 mM, cytotoxicity flag (confluency mask): cytotoxic (confluency <70% of control).
Where [6] appears, read: library stock concentration (final ~1000-fold dilution): 10 mM, cytotoxicity flag (confluency mask): not cytotoxic.

Over roughly 2,900 compounds, “IRF Lucia reporter activity, fold change vs agonist alone” has its median near 0.9; the highest 2% begin near 2.8. This is one part of the list.

As for `COS(=O)(=O)[O-].COc1cccc2c1nc1ccccc1[n+]2C` (library stock concentration (final ~1000-fold dilution): 10 mM), the “IRF Lucia reporter activity” value is 0.0356 in the experiment with RAW-Dual [1] (setting [4]) and 0.453 with RAW-Dual [1] (agonist: LPS (TLR4) 0.1 ug/mL).

For the compound `CCN(CC)CCNc1ccc(C)c2sc3ccccc3c(=O)c12`, the “IRF Lucia reporter activity” value in the experiment with RAW-Dual [2] (setting [5]) was found to be 0.978. For the compound `CCN(CC)CCNc1ccc(C)c2sc3ccccc3c(=O)c12` (library stock concentration (final ~1000-fold dilution): 10 mM), the “IRF Lucia reporter activity” value in the experiment on RAW-Dual [1] (setting [4]) turned out to be 0.296; in the experiment with RAW-Dual [1] (agonist: LPS (TLR4) 0.1 ug/mL), 0.936. Regarding `O=C(O)c1ccc(/C=C2/SC(=S)N(Cc3cccc(C(F)(F)F)c3)C2=O)cc1`, the “IRF Lucia reporter activity” value with RAW-Dual [2] (setting [6]) was found to be 0.994. `O=C(O)c1ccc(/C=C2/SC(=S)N(Cc3cccc(C(F)(F)F)c3)C2=O)cc1` (library stock concentration (final ~1000-fold dilution): 10 mM): the “IRF Lucia reporter activity” value worked out at 1.08 with RAW-Dual [3] (setting [4]) and 1.07 in the experiment with RAW-Dual [3] (agonist: LPS (TLR4) 0.1 ug/mL).

As for `Cc1cc(Nc2cc(N3CCN(C)CC3)nc(/C=C/c3ccccc3)n2)n[nH]1.O=C(O)C(O)C(O)C(=O)O`, in the experiment with RAW-Dual [2] (setting [6]), the “IRF Lucia reporter activity” value is 0.0326. Take `Cc1cc(Nc2cc(N3CCN(C)CC3)nc(/C=C/c3ccccc3)n2)n[nH]1.O=C(O)C(O)C(O)C(=O)O` (library stock concentration (final ~1000-fold dilution): 10 mM): the “IRF Lucia reporter activity” value came out at 0.0151 with RAW-Dual [3] (setting [4]) and 0.0305 with RAW-Dual [3] (agonist: LPS (TLR4) 0.1 ug/mL). Consider `NC(=O)c1cccc(-c2cc(Nc3ccc(OC(F)(F)F)cc3)ncn2)c1`, for which the “IRF Lucia reporter activity” value in the experiment with RAW-Dual [2] (setting [6]) turned out to be 0.969.

In the case of `NC(=O)c1cccc(-c2cc(Nc3ccc(OC(F)(F)F)cc3)ncn2)c1` (library stock concentration (final ~1000-fold dilution): 10 mM), the “IRF Lucia reporter activity” value in the experiment with RAW-Dual [3] (setting [4]) amounted to 0.725; with RAW-Dual [3] (agonist: LPS (TLR4) 0.1 ug/mL), 0.975. As for `Cc1cc(C)c(CNC(=O)c2cc(-c3ccc(CN4CCOCC4)cc3)cc3c2cnn3C2CCCC2)c(=O)[nH]1`, the “IRF Lucia reporter activity” value in the experiment on RAW-Dual [2] (library stock concentration (final ~1000-fold dilution): 2 mM, cytotoxicity flag (confluency mask): not cytotoxic) came out at 1.02.

In the case of `Cc1cc(C)c(CNC(=O)c2cc(-c3ccc(CN4CCOCC4)cc3)cc3c2cnn3C2CCCC2)c(=O)[nH]1` (library stock concentration (final ~1000-fold dilution): 2 mM), the “IRF Lucia reporter activity” value with RAW-Dual [3] (setting [4]) was found to be 0.533; in the experiment on RAW-Dual [3] (agonist: LPS (TLR4) 0.1 ug/mL), 0.988. As for `COc1ccc(Oc2cc(NCCC(F)(F)F)c3ncc(-c4ccc(C(=O)NC5CC5)c(C)c4)n3n2)c(F)c1F` (library stock concentration (final ~1000-fold dilution): 10 mM), the results for the “IRF Lucia reporter activity” value with RAW-Dual [3] (setting [4]) and with RAW-Dual [3] (agonist: LPS (TLR4) 0.1 ug/mL) were 0.255 and 1.23, respectively. Take `NCCCC(=O)O`: the “IRF Lucia reporter activity” value with RAW-Dual [2] (library stock concentration (final ~1000-fold dilution): 10 mM water, cytotoxicity flag (confluency mask): not cytotoxic) worked out at 1.06. For the compound `NCCCC(=O)O` (library stock concentration (final ~1000-fold dilution): 10 mM water), the “IRF Lucia reporter activity” value in the experiment with RAW-Dual [3] (setting [4]) is 1.12; with RAW-Dual [3] (agonist: LPS (TLR4) 0.1 ug/mL), 0.83. Taken in the same sequence, the figures for `Cc1ccc(-c2nn(C(C)(C)C)c3ncnc(N)c23)cc1` (library stock concentration (final ~1000-fold dilution): 10 mM) were 0.971 and 0.583. Turning to `Cc1ccc(-c2nn(C(C)(C)C)c3ncnc(N)c23)cc1`, the “IRF Lucia reporter activity” value in the experiment with RAW-Dual [2] (setting [6]) was found to be 0.665.

As for `CC(C)CC(NP(=O)(O)OC1OC(C)C(O)C(O)C1O)C(=O)NC(Cc1c[nH]c2ccccc12)C(=O)O` (stereo not drawn), the “IRF Lucia reporter activity” value in the experiment on RAW-Dual [2] (setting [6]) is 0.955. `CC(C)CC(NP(=O)(O)OC1OC(C)C(O)C(O)C1O)C(=O)NC(Cc1c[nH]c2ccccc12)C(=O)O` (stereo not drawn) (library stock concentration (final ~1000-fold dilution): 10 mM): the “IRF Lucia reporter activity” value in the experiment with RAW-Dual [3] (setting [4]) came out at 1; with RAW-Dual [3] (agonist: LPS (TLR4) 0.1 ug/mL), 0.927. Consider `CCC(N)CNc1ccnc(-c2cc(-c3cnn(C)c3)ccc2O)n1.Cl.Cl` (stereo not drawn) (library stock concentration (final ~1000-fold dilution): 10 mM), for which the entries for the “IRF Lucia reporter activity” value in the experiment with RAW-Dual [1] (setting [4]) and with RAW-Dual [1] (agonist: LPS (TLR4) 0.1 ug/mL) were 0.0123 and 0.0754, respectively.

With `C=CC1CC1(NC(=O)C1CC(Oc2ncc(OC)c3ccc(Cl)cc23)CN1C(=O)C(NC(=O)OC(C)(C)C)C(C)(C)C)C(=O)NS(=O)(=O)C1CC1` (stereo not drawn), the “IRF Lucia reporter activity” value in the experiment with RAW-Dual [2] (setting [5]) came out at 1.03. As to `C=CC1CC1(NC(=O)C1CC(Oc2ncc(OC)c3ccc(Cl)cc23)CN1C(=O)C(NC(=O)OC(C)(C)C)C(C)(C)C)C(=O)NS(=O)(=O)C1CC1` (stereo not drawn) (library stock concentration (final ~1000-fold dilution): 10 mM), the “IRF Lucia reporter activity” value was found to be 1.02 in the experiment with RAW-Dual [1] (setting [4]) and 1.04 with RAW-Dual [1] (agonist: LPS (TLR4) 0.1 ug/mL). Consider `CC(=O)N1CCN(c2ccc(NC(=O)Cc3cnc(-c4ccnc(F)c4)c(C)c3)nc2)CC1` (library stock concentration (final ~1000-fold dilution): 10 mM), for which the “IRF Lucia reporter activity” value was 1.07 in the experiment on RAW-Dual [3] (setting [4]) and 0.943 in the experiment with RAW-Dual [3] (agonist: LPS (TLR4) 0.1 ug/mL). Taken in the same sequence, the figures for `CCC(Nc1ncnc2[nH]cnc12)c1oc2ccccc2c(=O)c1-c1cccc(F)c1` (stereo not drawn) (library stock concentration (final ~1000-fold dilution): 10 mM) were 0.805 and 0.866. Turning to `O=c1ccoc2cc(O)ccc12` (library stock concentration (final ~1000-fold dilution): 10 mM), the results for the “IRF Lucia reporter activity” value in the experiment on RAW-Dual [3] (setting [4]) and in the experiment on RAW-Dual [3] (agonist: LPS (TLR4) 0.1 ug/mL) were 0.899 and 0.164, respectively.

Take `O=c1ccoc2cc(O)ccc12`: the “IRF Lucia reporter activity” value with RAW-Dual [2] (setting [6]) worked out at 0.973. As to `CNC(=NC#N)NCCSCc1nc[nH]c1C` (library stock concentration (final ~1000-fold dilution): 10 mM), the “IRF Lucia reporter activity” value in the experiment with RAW-Dual [3] (setting [4]) is 1.1; in the experiment on RAW-Dual [3] (agonist: LPS (TLR4) 0.1 ug/mL) it was 0.927.

Regarding `CNC(=NC#N)NCCSCc1nc[nH]c1C`, the “IRF Lucia reporter activity” value in the experiment with RAW-Dual [2] (setting [6]) came to 0.78.

The values are drawn from the supplement of paper PMC10037445.
